PubChem BioAssay AID1508624 (National Center for Advancing Translational Sciences (NCATS), 2021)
About 120 (0.25%) of roughly 48,000 compounds were called active. Another 4% or so got no clear call; they are omitted. The call rests on the fitted dose curve; in most records, active means well fitted activation curve with a large enough effect; inconclusive means small, poorly fitted or top-dose-only effect, or another doubt; inactive means no such curve, though single readings can be large or run the other way. This is one part of the list.

test: Primary qHTS for Identification of Small Molecule Activators of Huntingtin-Antisense Promoter Activity; conditions: HEK293 HTT-AS promoter firefly luciferase reporter (activity 0% = vehicle and -100% = no light), 24 h; series mostly up to 57.5 µM; activity change, positive = activation: at the top concentration; further: nearly all actives have a fitted effect of over 55% in size
Summary of the method: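 Firefly luciferase signal from promoter-reporter HEK293 cells was scaled between vehicle (0%) and zero RLU (-100%). Compounds were tested at final concentrations of up to 57.5 uM over 24 h at 37 degrees C. PTC124 at 50 uM final served as control inhibitor.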

Activity change, positive = activation, inactive:
COc1cccc(CNC(=O)CN2C(=O)COc3ccc(S(=O)(=O)N4CCCCCC4)cc32)c1 -25.9%
CCc1cccc(NC(=O)Cn2c(=O)n(CCC(=O)NCC3CCCO3)c(=O)c3cc(OC)c(OC)cc32)c1 (stereo not given) 1.66%
Cc1ccc(-c2nc3ncccc3o2)cc1NC(=O)c1ccccc1Br -3.19%
Cc1ccc(CNC(=O)c2cc3c(s2)-c2ccc(Cl)cc2SC3)cc1 -9.22%
CN(C)c1ccc(NC(=O)CN2CCN(CC(=O)Nc3ccc(Br)cc3)CC2)cc1 31.2%
Cc1ccc(CSC2=Nc3ccccc3C3=NC(CC(=O)NCc4cccs4)C(=O)N23)cc1 (stereo not given) 0.814%
CC1CC(=O)N(CC(=O)Nc2ccc(F)cc2F)c2ccccc2S1 (stereo not given) -14.5%
O=C(CCCn1ccc2cc(S(=O)(=O)N3CCCC3)ccc21)NCc1ccc(Cl)cc1 -35.9%
CCc1ccc(C2CC(=O)NC(NC(=O)c3ccc(C(C)(C)C)cc3)=N2)cc1 (stereo not given) 9.89%
Cc1c(-c2ccccc2)c(=O)oc2c(CN3CCCC3)c(O)ccc12 -4.5%
CCOc1ccc(/C=C/c2nc(C#N)c(Nc3ccc(OCC)cc3)o2)cc1 0.599%
Cc1nc2ccn(Cc3ccccc3)c(=O)c2cc1C(=O)NCc1ccccc1F -22.4%
COc1ccc(NC(=O)Nc2cccc(-c3cn4cccnc4n3)c2)cc1 26.2%
O=C(NCCc1ccc(Cl)cc1)c1ccc2c(c1)N(Cc1ccccc1F)C(=O)c1ccccc1S2(=O)=O 6.25%
COC(=O)c1ccccc1NC(=O)CCc1c(C)nc2c(c(C)nn2-c2ccccc2)c1C 3.42%
COc1ccc(Cn2ccc3nc(C)c(C(=O)NCc4ccc(OC)cc4OC)cc3c2=O)cc1 -7.34%
COc1cccc(CNC(=O)CCCn2nc(C)n3c(cc4sccc43)c2=O)c1 1.3%
COc1ccc(C2CC(=O)c3c([nH]c(C(=O)OC4CCCCCC4)c3C)C2)cc1OC (stereo not given) -31.1%
CCN(C(=O)c1nn(-c2ccc(C)cc2)c(=O)c2c1c1ccccc1n2C)c1ccc(F)cc1 -1.32%
Cc1cccc(OCC(=O)N(Cc2ccc(C(C)C)cc2)Cc2ccco2)c1C -23.9%
O=C(Nc1nnc(S(=O)(=O)N2CCCC2)s1)c1ccccc1F 1.93%
Cc1ccc(N2CC(NC(=O)c3ccco3)CC2=O)cc1C (stereo not given) -12.2%
O=C(NCCc1ccccc1)c1ccc(CSc2nc3ccncc3n2Cc2ccccc2F)cc1 1.2%
CC(C)COc1ccc(-c2nonc2NC(=O)c2ccc(F)cc2)cc1 -20.3%
O=C(Cn1ncc2c([nH]c3ccccc32)c1=O)NCc1cccc(Cl)c1 -19.8%
CCOC(=O)c1cnc2c(C)cc(Cl)cc2c1NCCc1ccc(OC)c(OC)c1 -12.9%
CCOC(=O)c1cc(-c2ccc(F)cc2)n(CCC(=O)NCc2ccccc2OC)c1C -35%
COc1ccc(NC(=O)C(C)n2c(C)c3cnn(-c4ccccc4)c(=O)c3c2C)cc1Cl (stereo not given) -26.6%
COc1ccc(C(=O)Nc2nnc(S(=O)(=O)N3CCC(C)CC3)s2)cc1OC -11.7%
O=C(c1cccc(F)c1)N1CCC(c2c[nH]c3ccccc23)(c2c[nH]c3ccccc23)CC1 -34.1%
CCN(C(=O)C1CCCN(c2ncnc3onc(-c4ccc(F)cc4)c23)C1)c1ccccc1 (stereo not given) -4.12%
O=C(NCC1CCCO1)c1c[nH]c2ccc(S(=O)(=O)Nc3ccc(F)cc3F)cc2c1=O (stereo not given) 6.72%
CCOc1ccc(NC(=O)NCCn2nnc3cc(S(=O)(=O)N(C)C)ccc32)cc1 -3.98%
CC(C)(C)c1ccc(-c2nc(S(=O)(=O)c3ccccc3)c(N3CCOCC3)o2)cc1 -22.2%
CC1CCCCN1Cc1c(O)ccc2c(=O)c(-c3ccccc3)coc12 (stereo not given) -12.4%
Cc1ccc(CNC(=O)c2sc3nc(-c4ccc(F)cc4)ccc3c2N)cc1 -4.34%
CCOC(=O)C1=C(CN2CCCCC2)NC(=O)NC1c1ccc(C)cc1 (stereo not given) -10.9%
COc1cccc(CNS(=O)(=O)c2ccc(N3CCCCS3(=O)=O)cc2)c1 -18.2%
CCOc1ccc(C(CC(=O)Nc2cc(C)c(Cl)cc2OC)N2Cc3ccccc3C2=O)cc1OC (stereo not given) -22.4%
Cc1cc2n(n1)CCC(=O)N2Cc1ccc(C(=O)Nc2ccc(Br)c(C)c2)cc1 -13.7%
COC(=O)c1c(NC(=O)COc2c(C)ccc(C)c2C)sc2c1CCC(C)C2 (stereo not given) -7.35%
Cc1ccc(-n2nc(C(=O)Nc3cccc(C#N)c3)c3c4ccccc4n(C)c3c2=O)cc1 9.37%
CC1=C(C(=O)Nc2cccnc2)C(c2ccc(Cl)cc2)n2nc(SCc3ccccc3)nc2N1 (stereo not given) -8.2%
CCN(CC)c1cc2c(cc1F)c(=O)c(S(=O)(=O)c1ccc(C)cc1)cn2Cc1ccc(F)cc1 -7.42%
CCOc1ccc(NC(=O)[C@H](Cc2ccccc2)N2Cc3ccccc3C2=O)cc1 -17.2%
O=C(Cn1ncc2ccsc2c1=O)N1CCN(c2ccccc2)CC1 -3.17%
CCCSc1nc2c(c(=O)[nH]1)C(c1ccc(F)cc1F)CC(=O)N2 (stereo not given) -21.5%
O=C(NCCc1ccc(Cl)cc1)c1nc(-c2cccc(F)c2)n2c1CCCCC2 -26.6%
CCCN1CCN(c2ncnc3sc(C(=O)Nc4cccc(Cl)c4C)c(C)c23)CC1 -12.5%
O=C(CC1N=C2c3ccccc3N=C(SCc3ccccc3Cl)N2C1=O)NCc1cccs1 (stereo not given) 4.74%
CCc1cnn2c(NCc3ccc[n+]([O-])c3)cc(N3CCCC[C@@H]3CCO)nc12 -38.4%
COc1ccc(C(=O)NNc2ncnc3c2cnn3-c2ccccc2)cc1 -12.7%
CCOC(=O)C1CCCN(Cc2cn3c(-c4ccc(Br)cc4)nnc3s2)C1 (stereo not given) -21.7%
CCOc1ccc(NC(=O)Cc2ccc(-n3c(C)nc4cccnc43)cc2)cc1 -12.8%
CC(=O)N1CCC(N(Cc2ccco2)C(=O)Nc2ccc(Br)cc2F)CC1 -1.69%
Cc1ccc(NC(=O)CN2C(=O)c3ccccc3Sc3ccc(C(=O)N4CCCC4)cc32)cc1 -27.8%
CCN(CC)CCNC(=O)c1[nH]c2ccccc2c1Sc1ccc(Cl)cc1 -3.46%
O=C(Nc1cc(Cl)ccc1Cl)c1cc(S(=O)(=O)N2CCCc3ccccc32)ccc1F -19.6%
CN(C(=O)c1ccc2c(c1)N(Cc1ccccc1F)C(=O)c1ccccc1S2(=O)=O)C1CCCCC1 -35.4%
COc1ccc(NC(=O)C(NC(=O)/C=C\c2ccc3c(c2)OCO3)c2ccc(OC)cc2)cc1 (stereo not given) -4.55%
